Experimental data reported in article PMC9911399, “Two distinct binding modes provide the RNA-binding protein RbFox with extraordinary sequence specificity”.
Residue numbers refer to the chain shown, from its start. This is one part of the list.

T1: RBFOX1 RRM RbFoxmut (Fox-RRM*) (Homo sapiens, UniProt Q9NWB1 109-208, R118D;E147R;N151S;E152T)
T1 sequence: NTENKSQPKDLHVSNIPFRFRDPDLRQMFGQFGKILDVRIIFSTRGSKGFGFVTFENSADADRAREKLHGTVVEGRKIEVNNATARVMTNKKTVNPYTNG

B1: CAACUAG (DNA:RNA)
RNA: GGGAGACCGGAAUUCAGAUUGUCCCAACUAGUUAAAUCCCGUCGUAGCCACCA
DNA 1: CAATCTGAATTCCGGTCTCCC
DNA 2: TGGTGGCTACGACGGGATT
B2: GCUCUCA (DNA:RNA)
RNA: B1 RNA with C25G, A26C, A27U, A30C, G31A
DNA 1: CAATCTGAATTCCGGTCTCCC
DNA 2: TGGTGGCTACGACGGGATT
B3: CAUGGCC (DNA:RNA)
RNA: B1 RNA with A27U, C28G, U29G, A30C, G31C
DNA 1: CAATCTGAATTCCGGTCTCCC
DNA 2: TGGTGGCTACGACGGGATT
B4: CCUUUCA (DNA:RNA)
RNA: B1 RNA with A26C, A27U, C28U, A30C, G31A
DNA 1: CAATCTGAATTCCGGTCTCCC
DNA 2: TGGTGGCTACGACGGGATT
B5: CGCUGUA (DNA:RNA)
RNA: B1 RNA with A26G, A27C, C28U, U29G, A30U, G31A
DNA 1: CAATCTGAATTCCGGTCTCCC
DNA 2: TGGTGGCTACGACGGGATT
B6: GCAUCGA (DNA:RNA)
RNA: B1 RNA with C25G, A26C, C28U, U29C, A30G, G31A
DNA 1: CAATCTGAATTCCGGTCTCCC
DNA 2: TGGTGGCTACGACGGGATT
B7: AGAUUUU (DNA:RNA)
RNA: B1 RNA with C25A, A26G, C28U, A30U, G31U
DNA 1: CAATCTGAATTCCGGTCTCCC
DNA 2: TGGTGGCTACGACGGGATT
B8: UUGGGAA (DNA:RNA)
RNA: B1 RNA with C25U, A26U, A27G, C28G, U29G, G31A
DNA 1: CAATCTGAATTCCGGTCTCCC
DNA 2: TGGTGGCTACGACGGGATT
B9: GGAGAUU (DNA:RNA)
RNA: B1 RNA with C25G, A26G, C28G, U29A, A30U, G31U
DNA 1: CAATCTGAATTCCGGTCTCCC
DNA 2: TGGTGGCTACGACGGGATT
B10: ACUAAGA (DNA:RNA)
RNA: GGGAGACCGGAAUUCAGAUUGUCCACUAAGAUUAAAUCCCGUCGUAGCCACCA
DNA 1: CAATCTGAATTCCGGTCTCCC
DNA 2: TGGTGGCTACGACGGGATT
B11: CUCGGAU (DNA:RNA)
RNA: B1 RNA with A26U, A27C, C28G, U29G, G31U
DNA 1: CAATCTGAATTCCGGTCTCCC
DNA 2: TGGTGGCTACGACGGGATT
B12: UGUAGCC (DNA:RNA)
RNA: B10 RNA with A25U, C26G, A29G, G30C, A31C
DNA 1: CAATCTGAATTCCGGTCTCCC
DNA 2: TGGTGGCTACGACGGGATT
B13: UGCAAAA (DNA:RNA)
RNA: B10 RNA with A25U, C26G, U27C, G30A
DNA 1: CAATCTGAATTCCGGTCTCCC
DNA 2: TGGTGGCTACGACGGGATT
B14: AAGACAG (DNA:RNA)
RNA: B1 RNA with C25A, A27G, C28A, U29C
DNA 1: CAATCTGAATTCCGGTCTCCC
DNA 2: TGGTGGCTACGACGGGATT
B15: GUAGAGG (DNA:RNA)
RNA: B10 RNA with A25G, C26U, U27A, A28G, A31G
DNA 1: CAATCTGAATTCCGGTCTCCC
DNA 2: TGGTGGCTACGACGGGATT
B16: UUAAACA (DNA:RNA)
RNA: B10 RNA with A25U, C26U, U27A, G30C
DNA 1: CAATCTGAATTCCGGTCTCCC
DNA 2: TGGTGGCTACGACGGGATT
B17: UAUACCU (DNA:RNA)
RNA: B10 RNA with A25U, C26A, A29C, G30C, A31U
DNA 1: CAATCTGAATTCCGGTCTCCC
DNA 2: TGGTGGCTACGACGGGATT
B18: GCCGUAU (DNA:RNA)
RNA: B1 RNA with C25G, A26C, A27C, C28G, G31U
DNA 1: CAATCTGAATTCCGGTCTCCC
DNA 2: TGGTGGCTACGACGGGATT
B19: CCAGGGG (DNA:RNA)
RNA: B1 RNA with A26C, C28G, U29G, A30G
DNA 1: CAATCTGAATTCCGGTCTCCC
DNA 2: TGGTGGCTACGACGGGATT
B20: GUGAGCU (DNA:RNA)
RNA: B10 RNA with A25G, C26U, U27G, A29G, G30C, A31U
DNA 1: CAATCTGAATTCCGGTCTCCC
DNA 2: TGGTGGCTACGACGGGATT

Target: T1, RBFOX1 RRM RbFoxmut (Fox-RRM*)
Assay: EMSA; HiTS-Eq, 1 nM pool, 10 min; buffer printed only for the single-RNA assays: 10 mM Tris pH 7.5, 150 mM NaCl, 3.4 mM EDTA, 0.001% NP-40, 30 C
Details: tags: His6 N-terminal (pET28a); label: 5' 32P
Method in brief: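 Purified RbFox RRM (wild type or mutant) was equilibrated for 10 min in 50 µL with 1 nM of a 5′-radiolabelled pool of RNA with 7 randomized nucleotides, its flanks annealed to DNA oligonucleotides, across increasing protein concentrations. Free RNA was separated by 8% native PAGE, excised, reverse-transcribed, PCR-barcoded and sequenced on an Illumina HiSeq 2500. Relative association constants came from read-count changes of each variant against the control reaction, normalised to the cognate motif.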

Which binding signal does the source give for B1 here?
Its binding signal is 0.0893 KA relative to UGCAUGU.

How did the binding signal turn out when B2 was run?
Its binding signal is 0.098 KA relative to UGCAUGU.

B3 was tested. Which binding signal did it give?
Its binding signal is 0.335 KA relative to UGCAUGU.

With B4 as the binder, how does the binding signal read?
Its binding signal is 0.0783 KA relative to UGCAUGU.

Which binding signal does the source give for B5 here?
The binding signal was 0.206 KA relative to UGCAUGU.

B6 was tested. Which binding signal did it give?
The binding signal was 0.675 KA relative to UGCAUGU.

With B7 as the binder, how does the binding signal read?
The binding signal was 0.0916 KA relative to UGCAUGU.

Which binding signal does the source give for B8 here?
Its binding signal is 0.14 KA relative to UGCAUGU.

How did the binding signal turn out when B9 was run?
Its binding signal is 0.0811 KA relative to UGCAUGU.

B10 was tested. Which binding signal did it give?
Its binding signal is 0.13 KA relative to UGCAUGU.

B11 was tested. Which binding signal did it give?
Its binding signal is 0.0754 KA relative to UGCAUGU.

For B12, which binding signal is on record?
The binding signal was 0.141 KA relative to UGCAUGU.

How did the binding signal turn out when B13 was run?
The binding signal was 0.102 KA relative to UGCAUGU.

B14 was tested. Which binding signal did it give?
The binding signal was 0.0689 KA relative to UGCAUGU.

For B15, which binding signal is on record?
Its binding signal is 0.0906 KA relative to UGCAUGU.

How did the binding signal turn out when B16 was run?
Its binding signal is 0.0699 KA relative to UGCAUGU.

B17 was tested. Which binding signal did it give?
The binding signal was 0.0911 KA relative to UGCAUGU.

How did the binding signal turn out when B18 was run?
Its binding signal is 0.113 KA relative to UGCAUGU.

With B19 as the binder, how does the binding signal read?
Its binding signal is 0.0555 KA relative to UGCAUGU.

Which binding signal does the source give for B20 here?
Its binding signal is 0.13 KA relative to UGCAUGU.
